# According to the supplement of paper PMC8728848:
# Some of the results follow.
# B1: CaSRK1 (Capsicum annuum) (protein)
# chain: MALCKIFPFAFILLSCSCYLISGQRFDYPTANLSTTWINSVSAPHSIDYTDGSRIRAILLRGTFGPRYACGFYCNGNCESYLFAIFIVQTNSASQITSPAIGFPQVVWSANRNNPVKINSTLQLTAEGDLVLRDADGTLAWSTNTAGKSVAGLSLTDEGNLALFDSKNATVWQSFDHPTDALVPGQKLVPGMKLTASVSRTNWTAGGLFALSAIDNGLVAFVESNPPQKYFEASVGGSNTSGGSNYVKYLNGSLTLFTHSADTTELILISITPASSAQYMKLESNGHLKVYEWTSRGWREVDDLLTGFRGECNYPTVCGRYGICTMGQCSCPTSSSSRTYFRPIDVRRPSLGCSEVTKLTCQNTKKHSPLEVEDVDYFAFKAGISDTDLNTCKRACLEKCSCKAAFFRSGLNSSRTRGDCYLPTEIFSIMNNEKDRTRYDSVAFIKVQV
# Columns and labels:
# Assay in all cases: glycan array binding signal (z-score within array); higher = stronger binding
# Conditions in all cases: glycan notation: IUPAC condensed, linker removed
# [1] = biological target: GlcNAc(b1-2)Man(a1-3)[GlcNAc(b1-2)Man(a1-6)]Man(b1-4)GlcNAc(b1-4)GlcNAc
# How it was run: (§1)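 Negative Z-scores can be read as non-binding. The Z-score is calculated within each array and then averaged across arrays of one protein sequence at different concentrations or buffers and across linkers. Arrays, 3228 in all, were curated from the Consortium for Functional Glycomics database and kept only where the protein sequence was available.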
# [2] = biological target: GlcNAc(b1-2)Man(a1-3)[GlcNAc(b1-2)Man(a1-6)]Man(b1-4)GlcNAc(b1-4)[Fuc(a1-6)]GlcNAc
# How it was run: as §1
# [3] = biological target: GlcNAc(b1-2)Man(a1-3)[GlcNAc(b1-4)][GlcNAc(b1-2)Man(a1-6)]Man(b1-4)GlcNAc(b1-4)GlcNAc
# How it was run: as §1
# [4] = biological target: GlcNAc(b1-2)Man(a1-3)[GlcNAc(b1-4)][GlcNAc(b1-2)Man(a1-6)]Man(b1-4)GlcNAc(b1-4)[Fuc(a1-6)]GlcNAc
# How it was run: as §1
# [5] = biological target: GlcNAc(b1-2)[GlcNAc(b1-4)]Man(a1-3)[GlcNAc(b1-2)Man(a1-6)]Man(b1-4)GlcNAc(b1-4)GlcNAc
# How it was run: as §1
# [6] = biological target: GlcNAc(b1-2)[GlcNAc(b1-4)]Man(a1-3)[GlcNAc(b1-4)][GlcNAc(b1-2)Man(a1-6)]Man(b1-4)GlcNAc(b1-4)GlcNAc
# How it was run: as §1
# [7] = biological target: GlcNAc(b1-2)[GlcNAc(b1-4)]Man(a1-3)[GlcNAc(b1-4)][GlcNAc(b1-2)[GlcNAc(b1-6)]Man(a1-6)]Man(b1-4)GlcNAc(b1-4)GlcNAc
# How it was run: as §1
# [8] = biological target: GlcNAc(b1-2)[GlcNAc(b1-4)]Man(a1-3)[GlcNAc(b1-4)][GlcNAc(b1-2)[GlcNAc(b1-6)]Man(a1-6)]Man(b1-4)GlcNAc(b1-4)[Fuc(a1-6)]GlcNAc
# How it was run: as §1
# [9] = biological target: GlcNAc(b1-2)[GlcNAc(b1-6)]Man(a1-6)[GlcNAc(b1-2)Man(a1-3)]Man(b1-4)GlcNAc(b1-4)GlcNAc
# How it was run: as §1
# [10] = biological target: GlcNAc(b1-2)[GlcNAc(b1-6)]Man(a1-6)[GlcNAc(b1-2)Man(a1-3)]Man(b1-4)GlcNAc(b1-4)[Fuc(a1-6)]GlcNAc
# How it was run: as §1
# [11] = biological target: GlcNAc(b1-2)[GlcNAc(b1-6)]Man(a1-6)[GlcNAc(b1-4)][GlcNAc(b1-2)Man(a1-3)]Man(b1-4)GlcNAc(b1-4)GlcNAc
# How it was run: as §1
# GlcNAc(b1-3)Fuc = biological target: GlcNAc(b1-3)Fuc
# How it was run: as §1
# GlcNAc(b1-3)Gal = biological target: GlcNAc(b1-3)Gal
# How it was run: as §1
# [12] = biological target: GlcNAc(b1-3)Gal(b1-3)GalNAc
# How it was run: as §1
# GlcNAc(b1-3)Gal(b1-4)Glc = biological target: GlcNAc(b1-3)Gal(b1-4)Glc
# How it was run: as §1
# [13] = biological target: GlcNAc(b1-3)Gal(b1-4)GlcNAc
# How it was run: as §1
# [14] = biological target: GlcNAc(b1-3)Gal(b1-4)GlcNAc(b1-2)Man(a1-3)[GlcNAc(b1-3)Gal(b1-4)GlcNAc(b1-2)Man(a1-6)]Man(b1-4)GlcNAc(b1-4)GlcNAc
# How it was run: as §1
# [15] = biological target: GlcNAc(b1-3)Gal(b1-4)GlcNAc(b1-2)Man(a1-3)[GlcNAc(b1-3)Gal(b1-4)GlcNAc(b1-2)Man(a1-6)]Man(b1-4)GlcNAc(b1-4)[Fuc(a1-6)]GlcNAc
# How it was run: as §1
# [16] = biological target: GlcNAc(b1-3)Gal(b1-4)GlcNAc(b1-2)[GlcNAc(b1-3)Gal(b1-4)GlcNAc(b1-6)]Man(a1-6)[GlcNAc(b1-3)Gal(b1-4)GlcNAc(b1-2)Man(a1-3)]Man(b1-4)GlcNAc(b1-4)GlcNAc
# How it was run: as §1
# [17] = biological target: GlcNAc(b1-3)Gal(b1-4)GlcNAc(b1-3)Gal(b1-4)GlcNAc
# How it was run: as §1
# [18] = biological target: GlcNAc(b1-3)Gal(b1-4)GlcNAc(b1-3)Gal(b1-4)GlcNAc(b1-2)Man(a1-3)[GlcNAc(b1-3)Gal(b1-4)GlcNAc(b1-3)Gal(b1-4)GlcNAc(b1-2)Man(a1-6)]Man(b1-4)GlcNAc(b1-4)GlcNAc
# How it was run: as §1
# [19] = biological target: GlcNAc(b1-3)Gal(b1-4)GlcNAc(b1-3)Gal(b1-4)GlcNAc(b1-2)Man(a1-3)[GlcNAc(b1-3)Gal(b1-4)GlcNAc(b1-3)Gal(b1-4)GlcNAc(b1-2)Man(a1-6)]Man(b1-4)GlcNAc(b1-4)[Fuc(a1-6)]GlcNAc
# How it was run: as §1
binder,measurement,setting,value
B1,glycan array binding signal (z-score),[1],-0.282
same,glycan array binding signal (z-score),[2],-0.143
same,glycan array binding signal (z-score),[3],0.509
same,glycan array binding signal (z-score),[4],-0.388
same,glycan array binding signal (z-score),[5],-0.39
same,glycan array binding signal (z-score),[6],-0.426
same,glycan array binding signal (z-score),[7],-0.401
same,glycan array binding signal (z-score),[8],-0.563
same,glycan array binding signal (z-score),[9],-0.46
same,glycan array binding signal (z-score),[10],0.031
same,glycan array binding signal (z-score),[11],-0.539
same,glycan array binding signal (z-score),GlcNAc(b1-3)Fuc,0.816
same,glycan array binding signal (z-score),GlcNAc(b1-3)Gal,-0.368
same,glycan array binding signal (z-score),[12],-0.465
same,glycan array binding signal (z-score),GlcNAc(b1-3)Gal(b1-4)Glc,-0.469
same,glycan array binding signal (z-score),[13],-0.404
same,glycan array binding signal (z-score),[14],0.946
same,glycan array binding signal (z-score),[15],0.297
same,glycan array binding signal (z-score),[16],0.851
same,glycan array binding signal (z-score),[17],0.298
same,glycan array binding signal (z-score),[18],1.15
same,glycan array binding signal (z-score),[19],1.21
